Among the data in the RNAGym collection of RNA variant scans (doi:10.1101/gad.245936.114) are nonsense suppression values, retold here.

B1: tRNA (parent)
chain: CUCUCGGUAGCCAAGUUGGUUUAAGGCGCAAGACUUUAAUUUAUCACUACGAAAUCUUGAGAUCGGGCGUUCGACUCGCCCCCGGGAGAUUUUUUCCUCGAGCAA

This sample is rich in variants without activity. A value given as a limit tells only on which side of the number the result lay.

Variants of B1 are the subject of this data set. Put plainly: nonsense suppression (GFP-seq) (ratio to wild type); higher = more function; SUP4oc tRNA, yeast GFP reporter sort-seq. Summed up: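 Yeast were grown in raffinose/galactose medium with 80 mg/L adenine, each strain bearing a genome-integrated ochre-suppressor tRNA variant from a ~3% random-mutation library, a galactose-driven GFP ochre reporter, and RFP. After sorting into GFP/RFP bins, every bin was sequenced on an Illumina platform at phred ≥30. The GFPSEQ value, a measure of nonsense suppression, is the weighted bin median GFP/RFP relative to the unmutated parent tRNA, using each variant's estimated cell share per bin as the weight. Only variants with ≥100 reads and ≥30 cells were included.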
CUCUCUGUAGCCAAGGUGGUUUAAGGCGCAAGACUUUAAUUUAUCACUACGAAUUCUUGAGAUCGGGCGUUCGACUCGCCCCCGGAAGGUUUUUUCCUCGAGCAA: the nonsense suppression was ≤ 0.026.

Regarding CUCUCGGUAUCCAAGUUGGUUUAAGGCGCAAGACUUUAAUUUAUCACUACGAAAUCUUGAGAUCGGGGGUUCGACGCGCCCCCGGGAUAUUUUUUCCUCGAGCAA, the nonsense suppression was ≤ 0.026.

On to CUCUCGGUAGCCAAGUUGGUUUAAGGCGCAAGACUUUAAUUUAUCACUACGAAACCUUGAGAUCGGGCGUUCGACUCACCCCCGGGAGAUUUUUUCCUCGAGCAA, for which the nonsense suppression was ≤ 0.026.

Regarding CUCUCGGUAGCUAAGUUGGUUUAAGGUGCAAGACUUUAAUUUAUCACUACGAAAUCUUGAGAUCGGGCGUUCGACUCGCCCCCGGGAGAUUUUUUCCUCGAGCAA, the nonsense suppression is 0.121.

Consider CUCGCGGUAGCCAAGUUGGUUUAAGGCGCAAGACUUUAAUUUAUCACUACGAAAUCUUGAGAUCGGGCGUUCGCCUCGCCCCCGAGACAUUUUUUCCUCGAGCAA, for which the nonsense suppression was ≤ 0.026.

On to CUCUCGGUAGCCAAGUUGGUUUAAGGCGCAAUACUUUAAUUUAUCACUACGAAAUCUUGAGAUCUGGCGUUCGACUCGCCCCCGGGAGAUUUUUUCCUCGAGCAA, for which the nonsense suppression was ≤ 0.026.

Turning to CUCUCGGUAGCCAGGUUGGUUUAAGGCGCAAGGCUUUAAUUUAUCACUACGAAAUCUUGAGAUCGGGCGUUCGACUCGCCCCCGGGAGAUUUUUUCCUCGAGCAA, the nonsense suppression was ≤ 0.026.

As to CUCUCGGUAGCCAAGUUGGUUUAAGGCGCAAAACUUUAAUUUAUCACUACGAAAUCUUGCGAUCAGGCGAUCGACUCGCCCCCGGGAGAUUUUUUCCUCGAGCAA, the nonsense suppression was ≤ 0.026.

As for CUCUCGGUAGCCAAGUUGGUUUGAAGCGCUAGACUUUAAUUUAUCACUACGAAAUCUUGAGAUCGUGCGUUCGUCUCGCCCCCGGGAGAUUUUUUCCUCGAGCAA, the nonsense suppression is ≤ 0.026.

For the variant CUCUCGGUAGCCAAGUUGGUUUAAGGCGCUAGACGUUAAUUUAUCACUACGAAAUCGUGAGAUCGGGCGUUCGACUCGCCCCCGGGAGAUUUUUUCCUCGAGCAA, the nonsense suppression was ≤ 0.026.

As for CUCUCGGUAGCCAAGUUGGUUUAAGGCGCAAGACUUUAAUUUAUCACUACGAAAUCUUGACAUAGGGCGUUCGACUCGCCCCCGGGAGAUUUUUUCCUCGAGCAA, the nonsense suppression is ≤ 0.026.

On to CUCUCGGUAGCCAAGUUGGUUUAAGGCGCAAGACUUUAAUUUAUCACUACGAAAUCUUGAGAUCGGGCGUUCGACUCGCACCGGGGAGAUUUUUUCCUCGAGCAA, for which the nonsense suppression is ≤ 0.026.

On to UUCUCGGUAGCCAAGUUGGGUUAAGGCGCAAGACUUUAAUUUAUCACUACGAAAUCUUGAGAUCGGGCGUUCGACUCGCCCCCGGGAGAUUUUUUCCUCGAGCAA, for which the nonsense suppression is ≤ 0.026.

As to CUCUCGGUAGCCAAGUUGGUUUAAGGCGCAAGAGUUUAAUUUAUCACUACGAAAUCUUGAGAUCUUGCGUUCGACUCGCCCCCGGGAGAUUUUUUCCUCGAGCAA, the nonsense suppression was ≤ 0.026.

For the variant CUCUCGGUAGCCAAGUUGGUUUAAGGCGCAAGACUUUAAUUUAUCACUACGAAAUCUUGAGAUCGGGCAUUCGACUCGCCCCCGGGAGAUUUUUUCCUCGAGCAA, the nonsense suppression is ≤ 0.026.

Turning to CUCUCGGAAGCCAAGUUGGUUUGAGGGGCAAGACUUUAAUUUAUCACUACGAAAUCUUGAGACCGGGCGUUCGACUCGCCCCCGGGAGAUUUUUUCCUCGAGCAA, the nonsense suppression was ≤ 0.026.

On to CUCUCGGUAGCCAAGUUGGUUUAAGGCGCAAGACUUUAAUUUAUCACUACGAAAUCUAGAGCUCGGGCGUUCGACUCGCCCCCGGGAGAUUUUUUCCUCGAGCAA, for which the nonsense suppression was ≤ 0.026.

Turning to CUCUCGGUAGCCAAGUUGGUUGAAGGGGUAAGCCUUUAAUUUAUCACUACGAAAUCUUGAGAUCGGGCGUUCGACGCGCCCCCGGGAGAUUUUUUCCUCGAGCAA, the nonsense suppression was ≤ 0.026.

Take CUCUCGGUAGCCAAGUUUGUUUAAAGCGCAAGACUUUAAUUUAUCACUACGAAAUCUUGAGAUCGGGCGAUCGACUCGCCCCCGGGUGAUUUUUUCCUCGAGCAA: the nonsense suppression was ≤ 0.026.

With CUCUCGGUAGCCAAGUUGGUUUAAGGCACAAGACUUUAAUUUAUCACUACGAAAUCUUGAGAUCGGGCGUUCGACUCGGCCCCGGGAGAUUUUUUCCUCGAGCAA, the nonsense suppression is ≤ 0.026.

Regarding CUCUCGGUAGCCAAGUUGGUUUAAGGCGCAACACUUUAAUUUAUCACUACGAAAUCUUGAGUUCGGGCGUUCGACUCGCCCCCGGGAGAUUUUUUCCUCGAGCAA, the nonsense suppression was ≤ 0.026.

For CUCUCGAUAGCCAAGUUGGUUUAAGGCGCAAGACUUUAAUUUAUCACUACGAAAUCUUGAGAUCGGGCGUUCGACUCGCCCCCGGAACAUUUUUUCCUCGAGCAA, the nonsense suppression is ≤ 0.026.

On to CUCUCGGUAGCCAAGUUGGUUUAAGGCUCAAGACUUUAAUUUAUCACUACGAAAUCUUGAGAUCGGGCGUUCGACUCGCCCGCGGGAGAUUUUUUCCUCGAGCAA, for which the nonsense suppression was ≤ 0.026.

For CUCUCGGUAGCAAAGUUGGUUUAAGGCGCAAGACUUUAAUUUAUCACUACGAAAUCCAGAGAUCGGGCGUUCGACUCGCCCCCGGGAGAUUUUUUCCUCGAGCAA, the nonsense suppression was ≤ 0.026.

On to CUCUCGGUAGCCAAGUUGGUUAAAGGCGCAACACUUUAAUUUAUCACUACGAAAUCUUGAGAUCGGGCGUUCGACUCGCCCCCGGCAGAUUUUUUCCUCGAGCAA, for which the nonsense suppression is ≤ 0.026.

Regarding CUCUCGGUAGCCAGGUUGGUUUAAGGCGCAAGACUUUAAUUUAUCACUACGAAAUCUGGAGAUCGGGCGUUCGACUCGCCCCCGGGAGAUUUUUUCCUCGAGCAA, the nonsense suppression is ≤ 0.026.

Regarding CUCUUGGUAGCCAAGUUGGUUUAAGGCGCAAGACUUUAAUUUAUCACUACGAAAUCUUGAGAUCGGGCGUUCCACUCGCCCCCGGGAGAUUUUUUCCUCGAGCAA, the nonsense suppression was ≤ 0.026.
